These results are taken from the RNAGym collection of RNA variant scans (doi:10.7554/elife.90254).

The source gives no read counts; variants with many changes may rest on few reads.

B1: LINE1-full (parent)
chain: UACGUAGGUGGUUUUCCCCUGAUAGUGCUAAGGGGGCCUGGAAGUUUGGACUGGGCAGAGCUCAACACAGCGUGGCAAAGUGGCUGUGGCUAGACUGCCUCUCUGGAUUCCUCGUCACUCAGCAGGGCAUCUCUGAGAGAAAUGCC

The variants in the data set derive from B1. The data set can be described thus: self-cleavage, relative activity (ratio to wild type); higher = more cleavage; in vitro, sequencing; the parent is a self-cleaving ribozyme.
As for UACGUAGGUGCUUUUCCCCUGAUAGUGCUAAGGGGGCCUGGAAGCUUGGACUGGGCAGAGCACAACACAGCGUGGCAAAGUGGCUGUGGCUAGACUGCCUCUCUGGAUUCCUCGUCACUCAGCAGGGCAUCUCUGAGAGAAAUGCC [G11C U45C U62A], the self-cleavage turned out to be 0.17. Then UACGUAGGUGCUUUUCCCCUGAUAGUGCUAAGGGGGCCUGGAAGUUUGGACUGGGCAGAGCACAACACAGCGUGGCAAAGUGGCUGUGGCUAGACUGCCUCUCUGGGUUCCUCGUCACUCAGCAGGGCAUCUCCGAUAGAAAUGCC [G11C U62A A107G U134C G137U], with 0.12; and UACGUAGGUGUUUCUCCCCUGAUAGUGCUAAGGGGGCCUGGAAGUUUGGACUGGGCAGAGCUCAACACAGCGUGGCAACGUGGCUGUGGCUAGACUGCCUCUCUGGAUUCCUCGUCACUCAGCAGGGCAUCUCUGAGAGGAAUGCC [G11U U14C A79C A140G], with 1.17. The same measure for UACGUAGGUGGAUUUCCCCUGAUAGUGCUAAGGGGGCCUGGAAUUUUGGACUGGGAAGAGCUCAACACAGCGUGGCAAAGUGGCUGUGGCUAGACUGCCUCUCUGGAUUCCUCGUCACUCAGCAGGGCAUCUCUGAGAGAAAUGCC [U12A G44U C56A]: 0.

For UACGUAGGUGGAUCUCCCCUGAUAGUGCUAAGGGGGCCUGGAAGUUUGGACUGGGCAGAGCUCAACACAGCGUGGCAAAGUGGCUGUGGCUAGACUGCCUCUCUGGAUUCCUCGUCACUCAGCGGGGCAUCUCCGAGAGAAAUGCC [U12A U14C A124G U134C], the self-cleavage is 1.19. For UACGUAGGUGGAUUUCCCCUGAUAGUGCUAAGGAGGCCUGGAAGUUUGGACUGGGCAGAGCUCAACACAGCGUGGCAAAGUGGCUGUGGCUAGACUGCCUCUCUGGAUUCCUCGUCACUCAGCAGGGCAUCUCCGAGAGAAAUGCC [U12A G34A U134C], the self-cleavage came out at 1.53. Then UACGUAGGUGUUUUUCCCCCGAUAGUGCUAAGGGGGCCUGGAAGUUUGGACUGGGCAGAGCUCAACACAGCGUGGCAAAGUGGCUGUGGCUAGACUGCCUCUCUGGGUUCCUCGUCACUCAGCAGGGCAUCUCUGAGAGAAAUGCC [G11U U20C A107G], with 0.9; and UACGUAGGUGGAUUUCCCCUGAUAGUGCUAAGGGGGCCUGGAAGUUUGGACUGGGCGGAGCUCAACACAGCGUAGCAAAGUGGCUGUGGCUAGACUGCCUCUCUGGAUUCCUCGUCACUCAGCAGGGCAUCUCUGAAAGAAAUGCC [U12A A57G G74A G137A], with 0.73. The same measure for UACGUAGGUGGAUUUCCCCUGAUGGUGCUAAGGGGGCCUGGAAGUUUGGACUGGGCAGAGCUCAACACAGCGUGGCAAAGUGGCUGUGGCUAGACUGCCUCUCUGGAUUCCUCGUCACUCAGCAGGGCAUCUCUAAGAGAAAUGCC [U12A A24G G135A]: 0.69.

Turning to UACGUAGGUGGAUUUCCCCUGAUAGUGCUAAGGGGGCCUGGAAGUUUGGGCUGGGCAGAGCUCAACACAGCGUGGCAAAGUGGCUGUGGCUAGACUGCCUCACUGGAUUCCUCGUCACUCAGCAGGGCAUCUCUGAGAGAAAUGCC [U12A A50G U102A], the self-cleavage was found to be 2.18.

Consider UACGUAGGUGGAUUUCCCAUGAUAGUGCUAAGGGGGCCUGGAAGUUUGGACUGGGCAGAGCUCAACGCAGCGUGGCAAAGUGGCUGUGGCUAGACUGCCUCUCUGGAUUCCUCGUCACUCAGCAGGGCAUCUCUGAGAGAAAUGCC [U12A C19A A67G], for which the self-cleavage turned out to be 0.71. The same measure for UACGUAGGUGGAUUUCCCCUGAUAGUGCUAAGGGGGCCUGGAAGUUUGGACUGGGCAGAGCUCAACACAGCGUGGCUAAGUGGCUGUGGCUGGACUGCCUCCCUGGAUUCCUCGUCACUCAGCAGGGCAUCUCUGAGAGAAAUGCC [U12A A77U A92G U102C]: 0.36. With UACGUAGGUGGAGUUCCCCUGAUAGUGCCAAGGGGGCCUGGAAGUUUGGACUGGGCAGAGCUCAACACAGCGUGGCAAAGUGGCUGUGGCUAGACUGCCUCUCUGGAUUCCUCGUCACUCAGCAGGGCAUCUCUGAGAGAAAUGCC [U12A U13G U29C], the self-cleavage is 0.22. Then UACGUAGGUGGAAUUCCCCUGAUAGUGCUAAGGGGGCCUGGAAGUUUGGACUGGGCAGAGCUCAGCACAGCGUGGCAAAGUGGCUGUGGCUAGACUGCCUCUUUGGAUUCCUCGUCACUCAGCAGGGCAUCUCUGAGAGAAAUGCC [U12A U13A A65G C103U], with 0.19. The same measure for UACGUAGGUGGAUUUCCCCUGAUAGUGCUAAGGGGGCCUGGAAGUUUGGACUGGGCAGAGCUCAACACAGCGUGUCAAAGUGGCUGUGGCUAGACUGCCUCUCUGGAUUCCUCGUCACUCUGCAGGGCAUCUCUGAGAGAGACGCC [U12A G75U A121U A141G U143C]: 1.65. The same measure for UACGUAGGUGGAUUUCCCCUGAUAGUGCUAAGGGGGCCUGGAAGUUUGGACUGGACAGAGCUCAACACAGCGUGGCAAAGUGGCUGUGGCUAGACUGCCUCUCUGGAUUCCUCGUCACUCAGCAGGGCGUCUCUGAGAGAAAUGCC [U12A G55A A129G]: 0.36; for UACGUAGGUGGAUUUCCCCUGAUAGUGCUAAGGGGGCGUGGAAGUUUGGACUGGGCAGAGCCCAACACAGCGUGGCAAAGUGGCUGUGGCUAGACUGCCUCUCUGGUUUCCUCGUCACUCAGCAGGGCAUCUCUGAGAGAAAUGCC [U12A C38G U62C A107U]: 0.18. In the case of UACGUAGGUGGAUUUCCCCUGAUAGUGCUAAGGGGGCCUGGAAGUUUGGACUGGGCAGAGCUCAACACAGCGUGGCAAAGUGGCUGUGGCUAGACUGCCUCUCUGGAUUCCUCGUCACUCAGCAGGGCAUCUCUGAGAGGGAUGCC [U12A A140G A141G], the self-cleavage was 0.94. Then UACGUAGGUGGAUUUCCCCUGAUAGUGCUAAGGGGGCCUGGAAGUUUGGACUGGGCAGAGCUCAACACAGCGUGGUAAAGUGGCUGUGGCUAGACUGCCUCUCUGGAUUCCUCGUCCCUCAGCAGGGCAUCUCUGAGGGAAAUGCC [U12A C76U A117C A138G], with 2.95.

In the case of UACGUAGGUGUUUUUCCCCUGAUAGUGCUAAGGGGGCCUGGAAGUUUGGACUGGGCAGAGCUCAACACAGCAUGGCUAAGUGGCUGUGGCUAGACUGCCUCUCUGGAUUCCUCGUCACUCAGCAGGGCAUCUCUGAGAGAAAUGCC [G11U G72A A77U], the self-cleavage worked out at 0.85.

In the case of UACGUAGGUGUUUUUCCCCUGAUAGUGCUAAGGGGGCCUGGAGGUUUGGACUGGGCAGAGUUCAACACAGCGUGGCAAAGUGGCUGUGGCUAGACUGCCUCUCUGGAUUCCUCGUCACUCAGCAGGGCAUCUCUGAGAGAAAUGCC [G11U A43G C61U], the self-cleavage amounted to 0.19.

For UACGUAGGUGUUUUUCCCCUGAUAGUGCUAAGGGGGCCCGGAAGUUUGGACUGGGCAGAGCUCAACACAGCGUGGCAAAGUGGCUGUGGCUAGACUGCCCCUCUGGAUUCCUCGUCACUCAGCAGGGCAUCUCUGAGAGAAAUGCC [G11U U39C U100C], the self-cleavage came out at 1.19. As for UACGUAGGUGGAUUUCCCCUGAUAGUGCUAAGGGGGCCUGGAAGUUUGGACUGGGCUGAGCUCAACACAGCGUGGCAAAGUGGCUGUGGCUAGACUGCCUCUCUGGAUUCCUCGUCACCCAGCAGGGCAUCUCUGAGAGAAAUGCC [U12A A57U U119C], the self-cleavage was 0.46. Take UACGUAGGUGGAUUUCGCCUGAUAGUGCUAAGGGGGCCUGGAAGUUUGGACUGGGCAGAGCUCAACACAGCGUGGCAAAGUGGCUGUGGCUAGACUGCCUCUCCGGAUUCCUCGUCACUCAGCAGGGCAUCUCUGAGAGAAAUGCC [U12A C17G U104C]: the self-cleavage worked out at 1.38. As for UACGUAGGUGGAUUUCCCCUGAUAGUGCUAAGGGGGCCUGGAAGUUUGGACUGGGCAGGGCUCAACACAGCGUGGCAAAGUGGCUGUGGCUAGACUGCCUCUCUGGAUUCCUCGUCACUCAGCGGGGCAUCUCUGAGAGAAAUGCC [U12A A59G A124G], the self-cleavage is 0.41. The same measure for UACGUAGGUGGAUUUCCCCUGAUAGUGCUAAGGGGGCCUGGAAGUUUGGACUGGGCGGAGCUCAACACAGCGUGGCAAAGUGGCUGCGGCUAGACUGCCUCUCUGGAUUCCUCGUCACUCAGCAGGGCAUCUCUGAGAGAAAUGCC [U12A A57G U87C]: 0. Then UACGUAGGUGGAUUUCCUCUGAUAGUGCUAAGGGGGCCUGGAAGUUUGGACUGGGCAGAGCUCAACACAGCGAGGCAAAGUGGCUGUGGCUAGACUGCCUCUCUGGAUUCCUCGUCACUCAGCAGGGCAUCUCUGAGAGAAAUGCC [U12A C18U U73A], with 1.07; and UACGUAGGUGGAUUUCCCCUGAUAGUGCUAGGGGGGCAUGGAAGUUUGGACUGGGCAGAGCUCAACACAGCGUGGCAAAGUGGCUGUGGCUAGACUGCCUCUCUGGAUUCCUCGUCACUCAGCAGGGCAUCUCUGAGAGAAAUGCC [U12A A31G C38A], with 1.48. Then UACGUAGGUGCUCUUCCCCUGAUAGUGCUAAAGGGGCCUGGAAGUUUGGACUGGGCAGAGCUCAACACAGCGUGGCAAAGUGGCUGUGGCUAGACUGCCUCUCUGGAUUCCUCGUCACUCAGCAGGGCAUCUCUGAGAGAAAUGCC [G11C U13C G32A], with 0.94; and UACGUAGGUGGAUCUCCCCUGAUAGUGCUAAGGGGGCCUGGAAGUUUGGACUGGGCUGAGCUCAACACAGCGUGGCAAAGUGGCUGUGGCUAGACUGCCUCUCUGGAUUCCUCGUCACUCAGCAGGGCAUCUCUGAGAGAAAUGCC [U12A U14C A57U], with 0.33. Regarding UACGUAGGUGGAUUUCCCCUGAUAGUGCUAGGGGGGCCUGGAAGUUUGGACUGGGCAGAGCUCAACACAGCGUGGCAAAGUGGCUGUGGCUAGACUGCCUCUUUGGAUUCCUCGUCACUCAGCAGGGCAUCUCUGAGAGAAAUGCC [U12A A31G C103U], the self-cleavage came out at 0.74. Then UACGUAGGUGUUUUUCCCCUGAUAGUGCUAAGGAGGCCUGGAAGUUUGGACUGGGCAGAGCUCAACGCAGCGUGGCAAAGUGGCUGUGGCUAGACCGCCUCUCUGGAUUCCUCGUCACUCAGCAGGGCAUCUCUGAGAGAAAUGCC [G11U G34A A67G U96C], with 0.02; and UACGUAGGUGUUUUUCCCCUGAUAGUGCUAAGGGGGCCUGGAAGUUUGGACUGGGCAGAGCUCAACACAGCGUGGCAAAGUGGCUGUGGCUAGACUGCCUCUCUGGAUUCCCCGUCACUCAGCAGGGCAUCUUUGAGAGAAAUGCC [G11U U112C C133U], with 0.87; and UACGUAGGUGGAUUUCCCCUGAUAGUGCUAAGGGGGCCUGGAAGUUUGGACUGGGCAGAGCUCAACACGGCGUGGCAAAGUGGCUGUGGCUAGACUGCCUCUCUGGAUUCCUCGUCACUCAGCAGGGCAUCUCUGAGAGAGAUGCC [U12A A69G A141G], with 0.73.

In the case of UACGUAGGUGUUUUUCCCCUGAUAGUGCUAAGGGGGCCUGGAAGCUUGGACUGGGCAGAGCUCAACGAAGCGUGGCAGAGUGGCUGUGGCUAGACUGCCACUCUGGAUUCCUCGUCACUCAGCAGGGCAUCUCUGAGAGAAGUGCC [G11U U45C A67G C68A A78G U100A A142G], the self-cleavage was determined as 0.06.

As for UACGUAGGUGGAUUUCCCCUGAUAGUGCUAAGGGGGCCUGGAAGUUUGGACUGGGCAGAGCUCAACACAGCGUGGCAAAGUGGCUGUGGCUAGACUGCCUCUCUGGAUUCCUCGUCGCUCAGCAGGGCAUCUCUGAGAGAGACGCC [U12A A117G A141G U143C], the self-cleavage came out at 1.2. Then UACGUAGGUGCUUUUCCCCUGAUAGUGCUAAGGGGGCCUGGAGGUUUGGACUGGGCAGAGCUCAACAUAGCGUGGCAAAGUGGCUGCGGCUAGACUGCCUCUCUGGAUUCCUCGUCACUCAGCAGGGCAUCUCUGAGGGAAAUGCC [G11C A43G C68U U87C A138G], with 0; and UACGUAGGUGGAUUUCCCCUGAUAGUGCUAAGGGGGCCUGGAAGUUUGGGCUGGGCAGAGCUCAACACAGCGUGGCAAAGUGGCUGUGGCUAGACUGCCUCUCCGGAUUCCUCGUCACUCAGCAGGGCAUCUCUGAGAGAAGUGCC [U12A A50G U104C A142G], with 0.

As for UACGUAGGUGGAUUUCCCCUGAUAGUGCUAAGGGGGCCUGGAAGUUUGGACUGGGCAGAGCUCAACUCAGCGUGGCAAAGUGGCCGUGGCUAGACUGCCUCUCUGGAUUCCUCGUCACUCAGUAGGGCAUCUCUGAGAGAAAUGCC [U12A A67U U85C C123U], the self-cleavage was 0.03.
